The list shows a part of the results.

The values that follow come from the supplement of paper PMC8728848.

Common to all, as to test: glycan array binding signal (z-score within array); higher = stronger binding
Common to all, as to conditions: glycan notation: IUPAC condensed, linker removed

In assay [1] the target is Gal(b1-4)GlcNAc(b1-3)Gal(b1-3)GlcNAc. The method, boiled down: (§1)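 Arrays were curated from the Consortium for Functional Glycomics database, 3228 in total, and kept only where the protein sequence was available. Binding is expressed as a within-array Z-score. This score was averaged across arrays of the same protein sequence at different concentrations or buffers and across linkers, and negative values can be read as non-binding.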

Assay [2] addresses Gal(b1-4)GlcNAc(b1-3)Gal(b1-4)Glc. The procedure, abridged:
as §1

For assay [3], the target named is Gal(b1-4)GlcNAc(b1-3)Gal(b1-4)GlcNAc. The procedure, abridged:
as §1

Assay [4] has as its target Gal(b1-4)GlcNAc(b1-3)Gal(b1-4)GlcNAc(b1-2)Man(a1-3)[Gal(b1-4)GlcNAc(b1-3)Gal(b1-4)GlcNAc(b1-2)Man(a1-6)]Man(b1-4)GlcNAc(b1-4)GlcNAc. The procedure, abridged:
as §1

Assay [5] has as its target Gal(b1-4)GlcNAc(b1-3)Gal(b1-4)GlcNAc(b1-2)Man(a1-3)[Gal(b1-4)GlcNAc(b1-3)Gal(b1-4)GlcNAc(b1-2)Man(a1-6)]Man(b1-4)GlcNAc(b1-4)[Fuc(a1-6)]GlcNAc. The procedure, abridged: as §1
The target of assay [6] is Gal(b1-4)GlcNAc(b1-3)Gal(b1-4)GlcNAc(b1-2)[Gal(b1-4)GlcNAc(b1-3)Gal(b1-4)GlcNAc(b1-6)]Man(a1-6)[Gal(b1-4)GlcNAc(b1-3)Gal(b1-4)GlcNAc(b1-2)Man(a1-3)]Man(b1-4)GlcNAc(b1-4)GlcNAc. The method, boiled down: as §1
Assay [7] deals with Gal(b1-4)GlcNAc(b1-3)Gal(b1-4)GlcNAc(b1-2)[Gal(b1-4)GlcNAc(b1-3)Gal(b1-4)GlcNAc(b1-6)]Man(a1-6)[Gal(b1-4)GlcNAc(b1-3)Gal(b1-4)GlcNAc(b1-2)Man(a1-3)]Man(b1-4)GlcNAc(b1-4)[Fuc(a1-6)]GlcNAc. The method, boiled down: as §1
The target in assay [8] is Gal(b1-4)GlcNAc(b1-3)Gal(b1-4)GlcNAc(b1-3)Gal(b1-4)GlcNAc. The procedure, abridged:
as §1

Assay [9] deals with Gal(b1-4)GlcNAc(b1-3)Gal(b1-4)GlcNAc(b1-3)Gal(b1-4)GlcNAc(b1-2)Man(a1-3)[Gal(b1-4)GlcNAc(b1-3)Gal(b1-4)GlcNAc(b1-3)Gal(b1-4)GlcNAc(b1-2)Man(a1-6)]Man(b1-4)GlcNAc(b1-4)GlcNAc. The procedure, abridged:
as §1

Assay [10] addresses Gal(b1-4)GlcNAc(b1-3)Gal(b1-4)GlcNAc(b1-3)Gal(b1-4)GlcNAc(b1-2)Man(a1-3)[Gal(b1-4)GlcNAc(b1-3)Gal(b1-4)GlcNAc(b1-3)Gal(b1-4)GlcNAc(b1-2)Man(a1-6)]Man(b1-4)GlcNAc(b1-4)[Fuc(a1-6)]GlcNAc. The procedure, abridged: as §1
The target of assay [11] is Gal(b1-4)GlcNAc(b1-3)Gal(b1-4)GlcNAc(b1-3)Gal(b1-4)GlcNAc(b1-2)[Gal(b1-4)GlcNAc(b1-3)Gal(b1-4)GlcNAc(b1-3)Gal(b1-4)GlcNAc(b1-6)]Man(a1-6)[Gal(b1-4)GlcNAc(b1-3)Gal(b1-4)GlcNAc(b1-3)Gal(b1-4)GlcNAc(b1-2)Man(a1-3)]Man(b1-4)GlcNAc(b1-4)[Fuc(a1-6)]GlcNAc. The method, boiled down:
as §1

Assay [12] addresses Gal(b1-4)GlcNAc(b1-3)Gal(b1-4)GlcNAc(b1-3)Gal(b1-4)GlcNAc(b1-3)Gal(b1-4)GlcNAc(b1-2)Man(a1-3)[Gal(b1-4)GlcNAc(b1-3)Gal(b1-4)GlcNAc(b1-3)Gal(b1-4)GlcNAc(b1-3)Gal(b1-4)GlcNAc(b1-2)Man(a1-6)]Man(b1-4)GlcNAc(b1-4)GlcNAc. The method, boiled down:
as §1

The target of assay [13] is Gal(b1-4)GlcNAc(b1-3)Gal(b1-4)GlcNAc(b1-3)Gal(b1-4)GlcNAc(b1-3)Gal(b1-4)GlcNAc(b1-2)Man(a1-3)[Gal(b1-4)GlcNAc(b1-3)Gal(b1-4)GlcNAc(b1-3)Gal(b1-4)GlcNAc(b1-3)Gal(b1-4)GlcNAc(b1-2)Man(a1-6)]Man(b1-4)GlcNAc(b1-4)[Fuc(a1-6)]GlcNAc. The procedure, abridged:
as §1

Assay [14] addresses Gal(b1-4)GlcNAc(b1-3)Gal(b1-4)GlcNAc(b1-3)Gal(b1-4)GlcNAc(b1-3)Gal(b1-4)GlcNAc(b1-2)[Gal(b1-4)GlcNAc(b1-3)Gal(b1-4)GlcNAc(b1-3)Gal(b1-4)GlcNAc(b1-3)Gal(b1-4)GlcNAc(b1-6)]Man(a1-6)[Gal(b1-4)GlcNAc(b1-3)Gal(b1-4)GlcNAc(b1-3)Gal(b1-4)GlcNAc(b1-3)Gal(b1-4)GlcNAc(b1-2)Man(a1-3)]Man(b1-4)GlcNAc(b1-4)[Fuc(a1-6)]GlcNAc. The procedure, abridged:
as §1

Assay [15] addresses Gal(b1-4)GlcNAc(b1-3)Gal(b1-4)GlcNAc(b1-3)Gal(b1-4)GlcNAc(b1-3)Gal(b1-4)GlcNAc(b1-3)Gal(b1-4)GlcNAc(b1-2)Man(a1-3)[Gal(b1-4)GlcNAc(b1-3)Gal(b1-4)GlcNAc(b1-3)Gal(b1-4)GlcNAc(b1-3)Gal(b1-4)GlcNAc(b1-3)Gal(b1-4)GlcNAc(b1-2)Man(a1-6)]Man(b1-4)GlcNAc(b1-4)GlcNAc. The method, boiled down: as §1
Assay [16] has as its target Gal(b1-4)GlcNAc(b1-3)Gal(b1-4)GlcNAc(b1-3)Gal(b1-4)GlcNAc(b1-3)Gal(b1-4)GlcNAc(b1-3)Gal(b1-4)GlcNAc(b1-2)Man(a1-3)[Gal(b1-4)GlcNAc(b1-3)Gal(b1-4)GlcNAc(b1-3)Gal(b1-4)GlcNAc(b1-3)Gal(b1-4)GlcNAc(b1-3)Gal(b1-4)GlcNAc(b1-2)Man(a1-6)]Man(b1-4)GlcNAc(b1-4)[Fuc(a1-6)]GlcNAc. The procedure, abridged: as §1
For assay [17], the target named is Gal(b1-4)GlcNAc(b1-3)Gal(b1-4)GlcNAc(b1-3)Gal(b1-4)GlcNAc(b1-3)Gal(b1-4)GlcNAc(b1-3)Gal(b1-4)GlcNAc(b1-2)[Gal(b1-4)GlcNAc(b1-3)Gal(b1-4)GlcNAc(b1-3)Gal(b1-4)GlcNAc(b1-3)Gal(b1-4)GlcNAc(b1-3)Gal(b1-4)GlcNAc(b1-6)]Man(a1-6)[Gal(b1-4)GlcNAc(b1-3)Gal(b1-4)GlcNAc(b1-3)Gal(b1-4)GlcNAc(b1-3)Gal(b1-4)GlcNAc(b1-3)Gal(b1-4)GlcNAc(b1-2)Man(a1-3)]Man(b1-4)GlcNAc(b1-4)[Fuc(a1-6)]GlcNAc. The method, boiled down: as §1

In assay [18] the target is Gal(b1-4)GlcNAc(b1-3)Gal(b1-4)GlcNAc(b1-3)Gal(b1-4)GlcNAc(b1-3)Gal(b1-4)GlcNAc(b1-3)Gal(b1-4)GlcNAc(b1-3)Gal(b1-4)GlcNAc(b1-2)Man(a1-3)[Gal(b1-4)GlcNAc(b1-3)Gal(b1-4)GlcNAc(b1-3)Gal(b1-4)GlcNAc(b1-3)Gal(b1-4)GlcNAc(b1-3)Gal(b1-4)GlcNAc(b1-3)Gal(b1-4)GlcNAc(b1-2)Man(a1-6)]Man(b1-4)GlcNAc(b1-4)GlcNAc. The procedure, abridged:
as §1

In assay [19] the target is Gal(b1-4)GlcNAc(b1-3)Gal(b1-4)GlcNAc(b1-3)GalNAc. The procedure, abridged:
as §1

B1: Gal 8 (Mus musculus), Q9JL15 (protein)
chain: MGGSHHHHHHGMASMLSLNNLQNIIYNPIIPYVGTITEQLKPGSLIVIRGHVPKDSERFQVDFQLGNSLKPRADVAFHFNPRFKRSSCIVCNTLTQEKWGWEEITYDMPFRKEKSFEIVFMVLKNKFQVAVNGRHVLLYAHRISPEQIDTVGIYGKVNIHSIGFRFSSASALPHTLGDLQSMETSALGLTQINRENIQKPGKLQLSLPFEARLNASMGPGRTVVIKGEVNTNARSFNVDLVAGKTRDIALHLNPRLNVKAFVRNSFLQDAWGEEERNITCFPFSSGMYFEMIIYCDVREFKVAINGVHSLEYKHRFKDLSSIDTLSVDGDIRLLDVRSW
As to B1, the “glycan array binding signal (z-score)” value in [1] was determined as 0.46; in assay [2] it was 0.196; in assay [3], 0.28; in assay [4], 0.557; in assay [5] it was 1.48; in [6] it was 1.06. Also, the “glycan array binding signal (z-score)” value in assay [7] worked out at 1.71; in [8] it was 0.937; in assay [9], 2.02; in assay [10] it was 2.19; in [11], 2.61; in assay [12], 2.34. For the same molecule, the “glycan array binding signal (z-score)” value in assay [13] worked out at 2.58; in assay [14], 2.76; in [15], 3.48; in assay [16] it was 3.61; in [17], 2.46; in assay [18], 3.5. In addition, in [19], the “glycan array binding signal (z-score)” value is -0.149.
